Read counts are not given, so values of variants with three or more changes are uncertain.
B1: LINE1-mini (parent)
chain: GGCAGAGCUCAACACAGCGUGGCAAAGUGGCUGUGGCUAGACUGCC

Variants of: B1
Assay: self-cleavage, relative activity (ratio to wild type); higher = more cleavage; in vitro, sequencing; the parent is a self-cleaving ribozyme

| Variant | self-cleavage |
| --- | --- |
| C3U C15A C18G G29C G36C C46U | 0.11 |
| C3U C15A C23U A25G G30U | 0.11 |
| C3U C15A C42G | 0.15 |
| C3U C15A G30A | 0.14 |
| C3U C15G A16C C18G C31A | 0.05 |
| C3U C15G A26U G30A | 0.02 |
| C3U C15G G29U G33U | 0.01 |
| C3U C15G U32G U43G | 0.04 |
| C3U C15G U38G A41G G44U | 0.01 |
| C3U C15U A16C | 0.03 |
| C3U C15U A16C A26U A39G C42U | 0.02 |
| C3U C15U A16G A24G C31U | 0.03 |
| C3U C15U A25U A26C | 0.28 |
| C3U C15U C18A U28A G30U U34G | 0.03 |
| C3U C15U C18U G33U | 0.14 |
| C3U C15U G17A A41C | 0.07 |
| C3U C15U G33C | 0.01 |
| C3U C15U U20C | 1.29 |
| C3U C18A C37A | 0.07 |
| C3U C18A C42A | 0.02 |
| C3U C18A C46A | 0.08 |
| C3U C18A G22C A26C | 0.14 |
| C3U C18A G36A A39G | 0.1 |
| C3U C18A G36A C46A | 0.04 |

| Variant | self-cleavage |
| --- | --- |
| C3U C18A U34C | 0.07 |
| C3U C18G A26C G35C C37U | 0.03 |
| C3U C18G C23A G27A | 1.14 |
| C3U C18U C31A | 0.02 |
| C3U C18U C45G | 0.13 |
| C3U C18U C46U | 1.08 |
| C3U C18U G19C G21C G27A G33U G36C | 0.1 |
| C3U C18U G22U G30C | 0.48 |
| C3U C18U G33A C37G | 0.02 |
| C3U C18U G35U U38G | 0.02 |
| C3U C18U U43G | 0.06 |
| C3U C23A C37U A41G | 0 |
| C3U C23G C31G | 0.03 |
| C3U C23G C37U | 0.02 |
| C3U C23U G29U U32G U38A | 0.06 |
| C3U C23U G40A | 0.19 |
| C3U C23U U34G G36U A39G G44U | 0.07 |
| C3U C31A A41U | 0.08 |
| C3U C31A C42G | 0.07 |
| C3U C31G C42A | 0.02 |
| C3U C31G G40U | 0.06 |
| C3U C31G U34G G44A | 0 |
| C3U C31U C46A | 0 |
| C3U C37A C42U | 0.09 |

| Variant | self-cleavage |
| --- | --- |
| C3U C37G U43C C45G | 0.13 |
| C3U C37U C45A | 0.07 |
| C3U C37U G40U | 0.58 |
| C3U C42U U43C | 0.01 |
| C3U G5A A6C C23U G44U | 0.02 |
| C3U G5A A12G C15A G22C | 0.03 |
| C3U G5A A12U | 0.1 |
| C3U G5A A39G | 0.4 |
| C3U G5A C8U G35C A41G | 0.03 |
| C3U G5A C10A U43C C45A | 0.15 |
| C3U G5A C15U G30A U43A | 0.1 |
| C3U G5A G7U A25G G36U | 0.03 |
| C3U G5A U34C G36A | 0.08 |
| C3U G5A U38G A39U | 0.62 |
| C3U G5C A6U C18U G27C | 0.19 |
| C3U G5C A11U G22U | 0.01 |
| C3U G5C A26G G29U | 0.09 |
| C3U G5C C8U G21A C45A | 0.04 |
| C3U G5C C10U U20A | 0.14 |
| C3U G5C C18G C23G G29U | 0.01 |
| C3U G5C C18G U20G U32C A39G | 0.02 |
| C3U G5C G7U C10U G22A C31A U32G | 0.03 |
| C3U G5C G19C C31U | 0.04 |
| C3U G5C G19U | 0.56 |

| Variant | self-cleavage |
| --- | --- |
| C3U G5C G19U G30C | 0.06 |
| C3U G5C G29C U32G G33U | 0.04 |
| C3U G5C G35U C42U | 0.01 |
| C3U G5C G36A A41G | 0.54 |
| C3U G5C U43A | 0.11 |
| C3U G5U A6U C42G | 0.08 |
| C3U G5U A11U U28G | 0.02 |
| C3U G5U A16C U20A U28G | 0.02 |
| C3U G5U A16U G19A | 0.05 |
| C3U G5U C8A U9G C23G | 0.09 |
| C3U G5U C8A U28C G35A C45U | 0.21 |
| C3U G5U C13A C31U G33C C45G | 0.07 |
| C3U G5U C13U C23A U28C | 0.05 |
| C3U G5U G7A A16U G21C | 0.06 |
| C3U G5U G19A G35C C42U | 0.05 |
| C3U G5U G21A A26G G35U A39G C45G | 0.17 |
| C3U G5U G27A G40A | 0.01 |
| C3U G5U U20C G36U | 0.13 |
| C3U G5U U20G A25G G30C G33C | 0.04 |
| C3U G7A A26C G27U | 0.12 |
| C3U G7A C8A C18U A26G U32C U38G | 0.28 |
| C3U G7A C8G G17A G22C C23A A41C | 0.06 |
| C3U G7A C13G | 0.07 |
| C3U G7A G27U U34A | 0.71 |

| Variant | self-cleavage |
| --- | --- |
| C3U G7A U9A C15G G22U | 0.29 |
| C3U G7C A12G A14U A25C G33U | 0.05 |
| C3U G7C A14G C23G G44C | 0.09 |
| C3U G7C A39G | 0.28 |
| C3U G7C C10U C37U G40A | 0.05 |
| C3U G7C C13U C45G | 0.07 |
| C3U G7C G17C C23A A25U C42A | 0.07 |
| C3U G7C G19A G29C G44U | 0.08 |
| C3U G7C U20G A26U G30U A41C | 0.02 |
| C3U G7U A14C C37A C42A U43A | 0.02 |
| C3U G7U C10A C18U A25U G33A C37G | 0.01 |
| C3U G7U C10A G19A C37G | 0.01 |
| C3U G7U C15U | 0.07 |
| C3U G7U C46G | 0.04 |
| C3U G7U G19A G29A G33U | 0.19 |
| C3U G7U G21U | 0.24 |
| C3U G7U G33U C37A | 0.03 |
| C3U G7U G36A | 0.82 |
| C3U G7U U9C U32A | 0.02 |
| C3U G17A A26U | 0.08 |
| C3U G17A C18A U20A G30U C46A | 0.02 |
| C3U G17A C37A | 0.07 |
| C3U G17A C42A | 0.07 |
| C3U G17A G21U G27C C45A | 0.04 |

| Variant | self-cleavage |
| --- | --- |
| C3U G17A G35C | 0.01 |
| C3U G17A U28G C46G | 0.04 |
| C3U G17C G22U A24G A25U | 0.21 |
| C3U G17C G40C | 0.09 |
| C3U G17C G40U | 0.14 |
| C3U G17C U20A G22A G35C A41C | 0.03 |
| C3U G17C U28A U32C U34A U38G C42A | 0.03 |
| C3U G17U A25C G29A C45G | 0.06 |
| C3U G17U G22U | 0.15 |
| C3U G17U U32C G44A | 0.54 |
| C3U G19A A41G | 0.18 |
| C3U G19A G21U | 0.18 |
| C3U G19A G27A C42U | 0.05 |
| C3U G19A G30U A41C | 0.09 |
| C3U G19A U28G G30A C31G G35C G36A C42A U43A | 0.03 |
| C3U G19A U34A | 0.03 |
| C3U G19A U38A | 0.16 |
| C3U G19C C37A | 0.01 |
| C3U G19C C37A A41G C45G | 0.01 |
| C3U G19C C37G | 0 |
| C3U G19C C37G C42G | 0.01 |
| C3U G19C C37U | 0.03 |
| C3U G19C G30C | 0.84 |
| C3U G19C G40A U43C | 0.02 |

| Variant | self-cleavage |
| --- | --- |
| C3U G19U A26C G33U | 0.35 |
| C3U G19U A41U C42A G44U | 0.22 |
| C3U G19U C23U | 0.33 |
| C3U G19U C37G | 0.03 |
| C3U G19U G21U G33A | 0.14 |
| C3U G19U G30A | 0.04 |
| C3U G19U G36C C42U G44A | 0.07 |
| C3U G19U G44A | 0.58 |
| C3U G19U U34A A39G | 0.02 |
| C3U G19U U34C U38C A41C C45A | 0.03 |
| C3U G21A C23U C31A | 0.02 |
| C3U G21A C46U | 0.31 |
| C3U G21C C23U C37A | 0.14 |
| C3U G21C C31A | 0.02 |
| C3U G21C C37A | 0.03 |
| C3U G21U A41U | 0.79 |
| C3U G21U C31U | 0.26 |
| C3U G21U G35C C46U | 0.27 |
| C3U G22A G33A | 0.06 |
| C3U G22A G35A C46A | 0.11 |
| C3U G22A G36U C46G | 0.04 |
| C3U G22C G44U | 0.09 |
| C3U G22U A24G G30A | 0.73 |

Reference: the RNAGym collection of RNA variant scans (doi:10.7554/elife.90254)
